Screen size: about 46,000 compounds; about 60 (0.1%) were called active. Not shown: some 3% with an inconclusive outcome. Calls come from the whole dose curve; as a rule, active = well fitted inhibition curve with a large enough effect; inconclusive = small, poorly fitted or top-dose-only effect; inactive = no such curve, though single readings can be large or run the other way. This is one part of the list.
Assay: Primary qHTS assay for Inhibitors of ovarian cancer metastasis using an organotypic tumor microenvironment (TME) model.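 For activity change, negative = inhibition: plate controls were DMSO wells for no effect and tomatine positive control wells for full effect.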 Note: nearly all actives have a fitted effect of over 65% in size.
Settings: SKOV3ip1-GFP adhesion/invasion on 3D omental model, fluorescence; series mostly up to 45.8 µM; activity change, negative = inhibition: at the top concentration
Summary of the method: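 A 3D layer of primary human omental fibroblasts, mesothelial cells, fibronectin and collagen I, grown 48 hr, received SKOV3ip1-GFP cells in serum-free medium plus compounds at 0.36-46 umol/L. After 2 hr RT and 16 hr 37 C, fixed adherent GFP cells were counted; normalized to DMSO and tomatine.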

outcome, inactive:
CCCn1c(=N)c(C(=O)NCc2ccccc2)cc2c(=O)n3cccc(C)c3nc21, Cc1ccc(CNC(=O)C(=O)NCC(c2cccs2)S(=O)(=O)c2ccccc2)cc1 (stereo not drawn), COc1ccc(-c2noc(CNC(=O)c3ccc(OC)cc3OC)n2)cc1, N#C/C(=C\c1ccccc1)c1nc(-c2cc3c(ccc4ccccc43)oc2=O)cs1, CCOC(=O)c1c(NC(=O)COc2ccc(OC)cc2)sc(C(=O)N(CC)CC)c1C, CCOC(=O)c1cccc(NC(=O)Cn2cnc3nc4c(cc3c2=O)CCCC4)c1, Cc1cccc(CCNC(=O)CCc2c(C)nc3c(-c4ccc(F)cc4)c(C)nn3c2C)c1, Cc1ccc(-c2onc(C)c2C)cc1S(=O)(=O)N1CCc2ccccc21, COc1ccc(NC(=O)Cn2c(SCc3c(F)cccc3Cl)nc3ccncc32)cc1OC, Cc1cc(C)cc(NC(=O)C2CCCN(c3nnc(-n4c(C)ccc4C)s3)C2)c1 (stereo not drawn), CCN(CC)c1ccc(NC(=O)C2CCCN(S(=O)(=O)c3ccc4c(c3)oc(=O)n4C)C2)c(C)c1 (stereo not drawn), CCCCNC(=O)c1ccc(-c2nc(CN3CCc4ccccc43)c(C)o2)cc1, Cc1c(Cl)cccc1NC(=O)CCS(=O)(=O)c1cccc2nsnc12, COc1ccc(OC)c(S(=O)(=O)NCCc2sc(C)nc2C)c1, COc1cccc(-c2nn(C)c3sc(C(=O)N4CCN(c5cccc(C(F)(F)F)c5)CC4)cc23)c1, Cc1ccc(NC(=O)CCNS(=O)(=O)c2cccs2)cc1F, CCOC(=O)c1cnn(-c2cccc(Cl)c2)c1C1CCN(C(=O)OC(C)(C)C)CC1, CCOC(=O)C1=C(CN(CC)Cc2ccccc2)NC(=O)NC1c1ccc(Cl)cc1 (stereo not drawn), Cc1c(-c2cccc(NC(=O)Cc3ccccc3)c2)nc2ncccn12, CCCCC(=O)Nc1cc(-c2cn3cccnc3n2)ccc1C, CN(Cc1ccccc1)C(=O)c1c[nH]c2ccc(S(=O)(=O)Nc3ccccc3F)cc2c1=O, Cc1ccc(OCCSc2nc3ccccc3n2CC(=O)N2CCOCC2)cc1C, COc1ccc(CCNC(=O)CCCCn2c(=O)c3ccccc3n(CC(=O)Nc3ccc(C)cc3C)c2=O)cc1OC, Cc1ccc(N(C)S(=O)(=O)c2ccc3[nH]c4c(c3c2)CCCC4)cc1

Activity change, negative = inhibition, inactive:
Cc1ccc(C)c(NC(=O)C2CCCN2S(=O)(=O)c2ccc3c(c2)CCCC(=O)N3)c1 (stereo not drawn) -7.38%, CCC1=Nc2cc(C(=O)N3CCC(C)CC3)ccc2Sc2ccc(C)cc21 -29.3%, Cc1cccc(CNC(=O)C2CCN(S(=O)(=O)c3cccc4nonc34)CC2)c1 -7.64%, CCCC(=O)OCc1cnc(C)c2oc(=O)c(C(=O)Nc3ccc(F)cc3C)cc12 -1.88%, CCCCN(CC)CCNC(=O)c1nn(-c2ccc(OC)cc2)c(=O)c2c1c1ccccc1n2C 3.13%, Cc1ccc2nc(N3CCN(c4ccc(F)cc4)CC3)c3nnnn3c2c1 -3.73%, CCOc1ccc(CCNC(=O)C2CC(=O)N(CCc3ccc(OC)c(OC)c3)C2)cc1OCC (stereo not drawn) -3.27%, COc1cccc(-c2noc(COc3cccc(C)c3C)n2)c1 6.66%, CCN(CC)CCCNC(=O)c1ccc2c(c1)NC(=O)C(CS(=O)(=O)Cc1ccc(F)cc1Cl)N2 (stereo not drawn) -8.49%, CCc1ccc(NS(=O)(=O)c2ccc3[nH]cc(C(=O)NCCc4ccccc4)c(=O)c3c2)cc1 0.646%, COc1ccc(N2CC(c3nc(-c4ccccc4C)no3)CC2=O)cc1Cl (stereo not drawn) -4.61%, COCCNC(=O)c1sc2nc3n(c(=O)c2c1C)CCC3 6.15%, Cc1nc(-c2ccc(Cl)cc2)sc1CCNC(=O)C(=O)Nc1ccccc1C#N 0.987%, COC(=O)c1ccc(NC(=O)C(c2ccccc2)N2Cc3ccccc3C2=O)cc1 (stereo not drawn) 16.2%, CCCCN(C(=O)Nc1ccc(OCC)cc1)C1CCN(C(C)=O)CC1 9.47%, COCCn1c(SCC(=O)Nc2ccc(Br)cc2)nc2c([nH]c3ccccc32)c1=O -11.7%, CCCc1ccc(OC(=O)c2sc3ncn(Cc4cccc(F)c4)c(=O)c3c2C)cc1 11.2%, COc1ccc(N2CCN(C(=O)c3cc4c(s3)-c3c(C)cccc3OC4)CC2)cc1 -1.91%, Cc1ccc(NC(=O)C2CCCN(S(=O)(=O)c3ccc(C)cc3)C2)cc1 (stereo not drawn) 1.17%, CCOC(=O)c1c(S(=O)(=O)N2CCN(c3cc(Cl)ccc3C)CC2)c(C)n(C)c1C 0.273%, CCC(Sc1nc2n[nH]c(C)c2c(=N)n1-c1ccc(Br)cc1)C(=O)N(CC)CC (stereo not drawn) -1.23%, Cc1ccc(NC(=O)Cn2nc(-c3ccc(Cl)cc3)c3ccccc3c2=O)cc1 1.27%, COc1ccccc1-c1ncnn1-c1sc2c(c1C#N)CCCCC2 6.76%, COc1cc(NS(=O)(=O)c2ccc3c(c2)OCC(C(=O)N2CCCC2)O3)cc(OC)c1 (stereo not drawn) 1.69%, COc1ccc(NC(=O)Cn2ncc3c4ccccc4n(Cc4ccccc4)c3c2=O)cc1OC 0.646%, Cc1ccc(Nc2c3c(nc4ccccc24)CCC3)cc1F -21.7%, CCc1ccc(-c2nc3cc(NC(=O)c4ccc(F)cc4)ccc3o2)cc1 1.85%, Cc1ccc(CNC(=O)CCN2C(=O)C(C)Oc3ccc(C)cc32)cc1 (stereo not drawn) -11.3%, Cc1cccc(COc2ccc(-c3cc(C(F)(F)F)n4nc(C)cc4n3)cc2)c1 -7.77%, NNCCc1ccccc1 7.37%, Cc1cn2c(=O)cc(COC(=O)COc3ccc(F)cc3)nc2s1 1.48%, COc1ccccc1N(CC(=O)NCCSc1ccccc1)S(=O)(=O)c1ccc(C)cc1 4.33%, COC1(C(F)(F)F)NC(=O)N(c2ccc(F)cc2)C1=O (stereo not drawn) 2.77%, Cc1cccc(-n2c3nc(=O)n(C)c(=O)c-3cc3c(C)nn(-c4ccccc4)c32)c1C 7.51%, COc1cccc(CCNC(=O)c2cnc3sc(N4CCCC4)nn3c2=O)c1 -1.76%, COc1ccc(-n2c(=O)c3c(c4cc(OC)ccc4n3C)n(Cc3c(F)cccc3Cl)c2=O)cc1 3.06%, CSc1ncc2c(n1)-c1ccccc1N(Cc1ccccc1C)S2(=O)=O 10.9%, Fc1ccc(NCc2nc3ccccc3n2CCOc2ccccc2Cl)cc1 -14.4%, CC1CCc2c(sc3nnn(CC(=O)Nc4ccccc4Cl)c(=O)c23)C1 (stereo not drawn) 2.19%, Cc1ccc(OCCSc2nc3ccc(NC(=O)COc4ccc(C)cc4)cc3s2)cc1 -9.25%, COc1ccc(NC(=O)N2CCC(n3c(C)nc4cccnc43)CC2)cc1OC 1.32%, COc1ccc(Cl)cc1NC(=O)N1CCC2(CC1)Oc1ccccc1C(=O)N2Cc1ccc(F)cc1 -7.34%, CSc1nc2sc3c(c2c(=O)n1-c1ccc(C)cc1)CCCC3 12.2%, O=C(Cn1ccn(-c2ccc(F)c(F)c2)c(=O)c1=O)NCc1ccccc1 7.02%, O=C(CCSCc1ccccc1Cl)NCCc1ccccc1 5.36%, CCOc1ccc(-c2c(C)nn3c(C)c(C(=O)NC(C)c4ccccc4)cnc23)cc1OCC (stereo not drawn) -13.1%, CCCn1cc(S(=O)(=O)c2ccc(OCC)cc2)c(=O)c2cc(C)ccc21 -13.5%, CN(CC(=O)N(Cc1ccc(C2CCCCC2)cc1)c1ccc(C(=O)O)c(O)c1)S(=O)(=O)c1c(F)c(F)c(F)c(F)c1F 23.3%, CCOC(=O)c1cc2c(=O)n3ccccc3nc2n(CC2CCCO2)c1=NC(=O)c1ccc(OCC)cc1 (stereo not drawn) -1.57%, COc1ccc(CNc2nc(-c3ccccc3)nn2C(=O)c2ccccc2OC)cc1 38.9%, COc1cc(Cl)c(S(=O)(=O)N2CCN(c3c(C)cccc3C)CC2)cc1Cl 28.8%, Cc1cc(C)c(NC(=O)c2cc(S(=O)(=O)N3CCCC3)cn2C)c(C)c1 0.175%, COc1ccc(N2CCN(CCCNC(=O)c3sc4ncccc4c3-n3cccc3)CC2)cc1 -22%, CC(C)OCCCNC(=O)Cn1c(-c2cccs2)cc2cc(F)ccc21 -5.85%, COc1cc2nc(NCCc3ccc(Cl)cc3)n3nc(-c4ccccc4)nc3c2cc1OC -5.11%, CCOc1cc(C(=O)N2CC(=O)Nc3ccc(F)cc3C2c2ccccc2)cc(OCC)c1OCC (stereo not drawn) 18.5%, CCOc1cc(-c2cc(C(=O)O)c3c(-c4ccccc4)[nH]nc3n2)ccc1O -0.0991%, COc1ccc(S(=O)(=O)NCC(c2ccco2)S(=O)(=O)c2cccs2)cc1OC (stereo not drawn) 5.98%, COc1cc(C(=O)OCc2cc(=O)n3ccsc3n2)cc(OC)c1OC -8.5%, COc1ccc(NC(=O)Cn2nc(C)c3c(C)n(-c4ccccc4)nc3c2=O)cc1OC 0.317%, CCN(C(=O)c1nn(C)c2c1CSc1ccccc1-2)c1cccc(C)c1 -0.334%, CCN1C(=O)C(Cc2nc3ccccc3c(=O)n2-c2ccc(OC)cc2)c2cc(C)ccc21 (stereo not drawn) -1.27%, N#Cc1cccc(NC(=O)Cn2nc(Cc3ccncc3)c3ccccc3c2=O)c1 -7.98%, O=C(COc1ccccc1)NCCc1csc(-c2cccc(F)c2)n1 -9.75%, COC(=O)c1cccc(Cn2nnc3sc4c(c3c2=O)CCC(C(C)(C)C)C4)c1 (stereo not drawn) 14%, Cc1ccc(C)c(Nc2nc(-c3ccccc3)c3cc(Br)ccc3n2)c1 -5.63%, CCN(CC)CCNC(=O)C(=O)NCC(c1cccnc1)N1CCN(c2ccccc2)CC1 (stereo not drawn) 20.8%, Cc1cccc(C(=O)Nc2cccc(OCc3cc(=O)n4cccc(C)c4n3)c2)c1 1.11%, Cc1cccc(N(C)C(CNS(=O)(=O)c2ccccc2)c2ccccc2)c1 (stereo not drawn) -2.87%, O=C(Nc1cccc(Cl)c1)c1cc(-c2ccc3c(c2)OCCO3)on1 -3.73%, CC(C)(C)OC(=O)N1CCC(c2c(C(=O)NC3CCCCC3)cnn2-c2cccc(F)c2)CC1 1.19%, O=C(CSc1ccccc1)NCc1ccc2c(c1)CCN2C(=O)c1ccc(Cl)cc1 7.82%, Cc1cc(Sc2ccc(Cl)cc2)nc2ccccc12 -5.18%, O=C(COc1ccccc1)NCc1ccc2c(c1)CCN2C(=O)c1ccccc1 -22.7%
